Assay results: PMC7819943, “Rice protein-binding microarrays: a tool to detect cis-acting elements near promoter regions in rice”
The list shows a part of the results.

These sequences were tested against T1, OsWOX13 (Oryza sativa, UniProt Q5QMM3 1-267) (assay: protein-binding microarray (RPBM); PBS, 2% BSA, 51.3 ng/ul salmon testes DNA, 50 uM zinc acetate, 200 nM TF, 25 C, 1 h; high values mean tight binding). Settings: protein: recombinant; tags: N-terminal polyhistidine and DsRed monomer fusion (pET32a); label: CyDye5-dUTP incorporated in the synthesized complementary strand; 3' TTTTT single-stranded linker to array surface; dsDNA, one strand shown.
T1 sequence: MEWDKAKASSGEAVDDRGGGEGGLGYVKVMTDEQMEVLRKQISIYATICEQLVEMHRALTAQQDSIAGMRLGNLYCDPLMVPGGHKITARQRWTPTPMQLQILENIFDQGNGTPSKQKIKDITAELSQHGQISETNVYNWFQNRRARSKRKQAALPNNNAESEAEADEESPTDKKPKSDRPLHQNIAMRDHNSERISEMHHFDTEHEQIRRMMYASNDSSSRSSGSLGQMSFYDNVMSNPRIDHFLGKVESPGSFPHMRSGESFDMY
Procedure, shortened: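 Binding signal is defined as the fluorescence intensity of each feature in arbitrary units, read on an Axon 4000B scanner. Transcription factors with N-terminal polyhistidine and DsRed fusions came from E. coli BL21-CodonPlus and were purified on Ni–NTA. They were incubated at 200 nM for 1 h at 25 °C on a custom Agilent array that had been made double-stranded with Cy5-dUTP, with 50 µM zinc acetate present, and the array was washed.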

Sequence | binding signal
TTGGTAAATTGCTTTGGTAAGTTAAGAGGTCACATCACTACGGAGTCACCTAGTGCAG | 5580 fluorescence intensity (a.u.)
AAGGTCAAATTAATAATGGAATGGATGGTATTGCCTTGAGCGGAGTCACCTAGTGCAG | 7630 fluorescence intensity (a.u.)
TCGATTGGATTTGCTGTGAGGATCAAGTATGATTTGCCCACGGAGTCACCTAGTGCAG | 4470 fluorescence intensity (a.u.)
TACGCATTGATTAGTTTTGTCAGGTTAGTATAGAATTTAACGGAGTCACCTAGTGCAG | 14000 fluorescence intensity (a.u.)
AGACAATTGATTTGGTATCATCTACGACATACGACATATTCGGAGTCACCTAGTGCAG | 43900 fluorescence intensity (a.u.)
GCGCTGATTAGATGGAACTAAAACTTTAGTGTAAAGTGACCGGAGTCACCTAGTGCAG | 39600 fluorescence intensity (a.u.)
CCCATCATTATTTCTTTGATTTCAGGTGATCTTCCCATCACGGAGTCACCTAGTGCAG | 5580 fluorescence intensity (a.u.)
ATGATTGTTTCGCTTATACTCATAATAAGCCGTAACGACTCGGAGTCACCTAGTGCAG | 29700 fluorescence intensity (a.u.)
AGTGATGTGACGATGATGTATATGGACCGTGTGTTCTCAACGGAGTCACCTAGTGCAG | 7790 fluorescence intensity (a.u.)
GCATGACTAATTTTGATAAGGTAAAGTTGTGTTTGGATTGCGGAGTCACCTAGTGCAG | 23800 fluorescence intensity (a.u.)
GGGTCACCAATCATTATAAAGAATTAGCTAAAGGTTCTATCGGAGTCACCTAGTGCAG | 10500 fluorescence intensity (a.u.)
GCATCATTAGATTGTTATGATTGTGAGGCAACATCCAGTACGGAGTCACCTAGTGCAG | 16400 fluorescence intensity (a.u.)
TAAAATTGACTCTTATGGTATAGAAATTCTCATATTTACGCGGAGTCACCTAGTGCAG | 16900 fluorescence intensity (a.u.)
TATTGTAATCTAGATTATTGACCCAGATTACTATAAGTTGCGGAGTCACCTAGTGCAG | 10500 fluorescence intensity (a.u.)
CTAATTAATTCAGTAGCAATTGCCCAAACTAAACTTTACGCGGAGTCACCTAGTGCAG | 13400 fluorescence intensity (a.u.)
TATAAATTCAATTTAGGTTTGGGAAAGATCTTAATGGTGTCGGAGTCACCTAGTGCAG | 8210 fluorescence intensity (a.u.)
AAAGCAATCACAGATTCATACCTTGATATAAACTCCTAAGCGGAGTCACCTAGTGCAG | 7230 fluorescence intensity (a.u.)
AAGCGATTTGAAATTTGATAGCAATAGTTTTGTGTGGTGCCGGAGTCACCTAGTGCAG | 3590 fluorescence intensity (a.u.)
GTAAATAAATAATTACTTATGTACAATACTGTTATTCTGTCGGAGTCACCTAGTGCAG | 14200 fluorescence intensity (a.u.)
AGTGACACTAATTAAACATATATGTTGTGATTTGCTCGCTCGGAGTCACCTAGTGCAG | 39300 fluorescence intensity (a.u.)
CTTTAGTCTCTGACACTAATTTAGAGTATTAAATATAGACCGGAGTCACCTAGTGCAG | 3810 fluorescence intensity (a.u.)

Sequence | binding signal
TTATAAATAATTTATAGTCAATTAATCATGCGCTGATGACCGGAGTCACCTAGTGCAG | 48200 fluorescence intensity (a.u.)
ATGAATTAATTTCATAACCCTGATTAGTCTCTTATCCTGTCGGAGTCACCTAGTGCAG | 41400 fluorescence intensity (a.u.)
ATAATTTGAAATTTAAATTTAAACTGTTCAAACAAAGTCACGGAGTCACCTAGTGCAG | 24700 fluorescence intensity (a.u.)
TAGGAAATCACATCCATCAATAGCGTTGTCAATCCTTCGACGGAGTCACCTAGTGCAG | 4050 fluorescence intensity (a.u.)
TACTTGTTGACTGGATTGGAGGATGGACGGTAGTCGGTTGCGGAGTCACCTAGTGCAG | 13100 fluorescence intensity (a.u.)
AGACGTAATTGGAATGGTAGTTTAAGGTGTTGTTTATGTACGGAGTCACCTAGTGCAG | 29800 fluorescence intensity (a.u.)
AAAATTGAATAACTCATCAAGATCTACAACTTTTATTTTGCGGAGTCACCTAGTGCAG | 17000 fluorescence intensity (a.u.)
GTACAAAGTGATTGTGTCACGCGTAGATGACATATAGGCACGGAGTCACCTAGTGCAG | 14700 fluorescence intensity (a.u.)
CGTGATTTCCCTTCCCCTTCCCCTCCCTCCGCCGCATCCCCGGAGTCACCTAGTGCAG | 16000 fluorescence intensity (a.u.)
GTGAATTGATTGATTATAACTTATAAGCAGCCTCCTAGGTCGGAGTCACCTAGTGCAG | 52000 fluorescence intensity (a.u.)
AGCATGATCAATAATAAGGTAATTTAGCTCCAATTATGTCCGGAGTCACCTAGTGCAG | 7040 fluorescence intensity (a.u.)
GGAATTGGTAACAGCAAGCTTAACAGAGAAAGGTAGTCGACGGAGTCACCTAGTGCAG | 8350 fluorescence intensity (a.u.)
ATATATATATATATATATATATATATATATATACATACTACGGAGTCACCTAGTGCAG | 16900 fluorescence intensity (a.u.)
TTTTAATTTAATTTTAGTGTGAACTAAACACTGTCTAAAGCGGAGTCACCTAGTGCAG | 21200 fluorescence intensity (a.u.)
GTGTTAATTTACAACTCACTATTCTTTATATACGACGAGACGGAGTCACCTAGTGCAG | 12000 fluorescence intensity (a.u.)
CATAATTGCTCTTATTTTGTACCTCACTTTAAAACAAACGCGGAGTCACCTAGTGCAG | 29000 fluorescence intensity (a.u.)
GTAGATTAACTTAGTTAGCTCTCACCAAGTGTTATGTTAACGGAGTCACCTAGTGCAG | 10500 fluorescence intensity (a.u.)
ATTCTGATTGGGCGAGACCCACCTCGTGGCCACTGTTGCACGGAGTCACCTAGTGCAG | 40700 fluorescence intensity (a.u.)
TTAAGCATAATTGTTCCATGATCTGGCAATATGGTGCTACCGGAGTCACCTAGTGCAG | 9270 fluorescence intensity (a.u.)
ATTAAAGATGATGAGTGATTGACGTTTTCTGCTCTGCCGACGGAGTCACCTAGTGCAG | 47100 fluorescence intensity (a.u.)
GAGAATAAATTAGAAACCAGAAATTTAAAAGCGCAACCTTCGGAGTCACCTAGTGCAG | 4470 fluorescence intensity (a.u.)

Sequence | binding signal
TGCCTATCACTGATGACTATATATGCATCGGCCACAAGAGCGGAGTCACCTAGTGCAG | 7710 fluorescence intensity (a.u.)
TATGATGATTAATGATATAATAATAAGTATGACGGACAATCGGAGTCACCTAGTGCAG | 17700 fluorescence intensity (a.u.)
CTAAGTAGAGAAACTAATTAATTAAGAAGCATCATATCCACGGAGTCACCTAGTGCAG | 3600 fluorescence intensity (a.u.)
GCTAACTTGAGATGATTAGACTCCTGATTGTAGCTCATGACGGAGTCACCTAGTGCAG | 27100 fluorescence intensity (a.u.)
CATGATGATAGTGATAGCAACTCAAGCAATACTAACGCACCGGAGTCACCTAGTGCAG | 14700 fluorescence intensity (a.u.)
TTTAACTGAACAAACAGGAAAATGTAAACTGATGAGGCCACGGAGTCACCTAGTGCAG | 21700 fluorescence intensity (a.u.)
TTTGATAATTTTATCAAAAGATGGTATGGTTCGATATTGTCGGAGTCACCTAGTGCAG | 9140 fluorescence intensity (a.u.)
TGATAAATTTGATGTTTATATGTTAAATTATAGTAGTTTGCGGAGTCACCTAGTGCAG | 17600 fluorescence intensity (a.u.)
CATAACAGCAATCTCAAGCAGGAGTTCCATTGGATTACCTCGGAGTCACCTAGTGCAG | 3660 fluorescence intensity (a.u.)
TAAGACTTAAATAAATAGATAAATTAAATATTTGATTAGACGGAGTCACCTAGTGCAG | 10600 fluorescence intensity (a.u.)
GTAAAATTACTCTCAAACTAATTGCATAACGAACTCTACACGGAGTCACCTAGTGCAG | 20000 fluorescence intensity (a.u.)
AAGAAAATTATCTTGAATCAACATTTATACGATCCATTGACGGAGTCACCTAGTGCAG | 5400 fluorescence intensity (a.u.)
AGATAGCCAATTGATTATACCATGATACCCTTAGGGTTCCCGGAGTCACCTAGTGCAG | 12000 fluorescence intensity (a.u.)
TTAAACTAAATCAGGTTGCTCAAGAGGTGATAAGTTTGGTCGGAGTCACCTAGTGCAG | 3490 fluorescence intensity (a.u.)
TTGTATTGCTAATAAATTGACCAGCTCATGTAGAATACGTCGGAGTCACCTAGTGCAG | 14000 fluorescence intensity (a.u.)
TCAGTGATAGGCGAATTTTCCAGGATTTAACGGCGTTGTGCGGAGTCACCTAGTGCAG | 9140 fluorescence intensity (a.u.)
ACACTGTAACTATAATAATTACATTGTTACTTATATGTAACGGAGTCACCTAGTGCAG | 4460 fluorescence intensity (a.u.)
GACCAACGGTGATTATTAACATGATCTATATCTATCTATCCGGAGTCACCTAGTGCAG | 5820 fluorescence intensity (a.u.)
AGACTAATGATGTTACTAATCTGCATCTAATTACGTGATACGGAGTCACCTAGTGCAG | 11700 fluorescence intensity (a.u.)
CATATGATTTATAAGCTGGTGGATTTCATGTCTTAAGTTTCGGAGTCACCTAGTGCAG | 18000 fluorescence intensity (a.u.)
GAACTGATCAATTATTAGTTGAGCTGAGCTGAGCTTATAACGGAGTCACCTAGTGCAG | 6130 fluorescence intensity (a.u.)

Sequence | binding signal
CAAATTAATTAGTTCATCAAATCTACCATTGAATATATATCGGAGTCACCTAGTGCAG | 25400 fluorescence intensity (a.u.)
CCTAATAATTTGGAAAGAGCCGGCTTGAATGGGGTGGATTCGGAGTCACCTAGTGCAG | 5400 fluorescence intensity (a.u.)
AGTTGATGAGAATTCTGTCAAACCGGAGGGTGTGAAGTGACGGAGTCACCTAGTGCAG | 4080 fluorescence intensity (a.u.)
GTAATAATTTAATGGAGAAGGGGTCATAGTTAATTGCCTACGGAGTCACCTAGTGCAG | 15800 fluorescence intensity (a.u.)
GTGGATTGATTCTCGGTCTCTTATTGTCCCTATCACGAATCGGAGTCACCTAGTGCAG | 38700 fluorescence intensity (a.u.)
TTGATTAATATTATGTGTACACAAAGTTGTCACCATCCATCGGAGTCACCTAGTGCAG | 18700 fluorescence intensity (a.u.)
TGTCAGTTATCTCGTTGGAATGATATATCGTTTTGTACTACGGAGTCACCTAGTGCAG | 3520 fluorescence intensity (a.u.)
GTTGTGATTGTCCAATGCAACATGATGAAGAGGGGAATAACGGAGTCACCTAGTGCAG | 8900 fluorescence intensity (a.u.)
TAATGATTAAGACTGAAAAGTTTATAAGTTAGAGCTATATCGGAGTCACCTAGTGCAG | 16300 fluorescence intensity (a.u.)
CTGTAGGACTAAATCAATCTAGCAAATGAATGGTGGCACACGGAGTCACCTAGTGCAG | 4130 fluorescence intensity (a.u.)
CCTGATAAACAAACACACATACATTGGCACATGGCATTTGCGGAGTCACCTAGTGCAG | 7870 fluorescence intensity (a.u.)
ACAATTTACTCATTTATTTATTTATTTATTTATGTATGTACGGAGTCACCTAGTGCAG | 5980 fluorescence intensity (a.u.)
ATCAATCAATAACTCTCAAATGCCTGGTTTGTAAAACAAACGGAGTCACCTAGTGCAG | 4660 fluorescence intensity (a.u.)
ACTATTCTGTTAAGTTGATTGAGAATGGTAAATTCCATTTCGGAGTCACCTAGTGCAG | 15600 fluorescence intensity (a.u.)
TAGATTATCAGTTTTGCATTCAGATTATCAGTTTTGCCAACGGAGTCACCTAGTGCAG | 6140 fluorescence intensity (a.u.)
ATCAATCACTACTGCATATTACTATAATCTCCTCTATACTCGGAGTCACCTAGTGCAG | 5200 fluorescence intensity (a.u.)
GATTAAACCATTAACATATTTTAACATATTTGACCAACACCGGAGTCACCTAGTGCAG | 3250 fluorescence intensity (a.u.)
TTGAGATTGAGAAACTCGTGAGCTCCATCCGCAACCGCAACGGAGTCACCTAGTGCAG | 7600 fluorescence intensity (a.u.)
TTAATGCATAATTAACTACTCTATCCGTCCCAGAATGTAACGGAGTCACCTAGTGCAG | 15200 fluorescence intensity (a.u.)
CAACACTTAATTATTTGCAATTAATCTAATTGCATATATACGGAGTCACCTAGTGCAG | 28200 fluorescence intensity (a.u.)
ATGACATGGATTCAATTAACCCTATGTTATTACCTTGACGCGGAGTCACCTAGTGCAG | 13000 fluorescence intensity (a.u.)
